Data set [1] in a line: Aggregation propensity (% HMW) by analytical SEC of IgG1 anti-CD3 antibody and Fc variants (Example 35). To be noted: PBS pH 7.4, anti-CD3 antibodies. It is filed as physicochemical. Here is the method:
Size exclusion chromatography measurements were performed to evaluate the aggregation propensity (% HMW) of IgG1 antibody and Fc modified derivatives. The produced and purified anti CD3 antibodies were applied to an analytical size exclusion chromatography column (SEC 200, GE Healthcare), equilibrated with PBS buffer pH 7.4.

The nature of data set [2]: Differential scanning calorimetry, melting temperature of Fc modified anti-CD3 antibodies (Example 35). The class given is physicochemical. To be noted: DSC, 1 mg/ml in PBS pH 7.4, anti-CD3 IgG1 Fc variants. Here is the method:
Calorimetric measurements were carried out on a differential scanning micro calorimeter (Nano DSC, TA instruments). The cell volume was 0.5 ml and the heating rate was 1° C./min. All proteins were used at a concentration of 1 mg/m in PBS (pH 7.4). The molar heat capacity of each protein was estimated by comparison with duplicate samples containing identical buffer from which the protein had been omitted. The partial molar heat capacities and melting curves were analyzed using standard procedure. Thermograms were baseline corrected and concentration normalized.
In general terms: DSC measures the heat that a sample takes up or gives off during a temperature scan.

B1: WT allotype R214K (antibody)
heavy: EVQLVESGGGLVQPGGSLKLSCAASGFTFNTYAMNWVRQASGKGLEWVGRIRSKYNNYATYYADSVKDRFTISRDDSKSTLYLQMNSLKTEDTAVYYCVRHGNFGNSYVSWFAYWGQGTLVTVSS[here human IgG1 constant region without letters]
light: QAVVTQEPSLTVSPGGTVTLTCRSSTGAVTTSNYANWVQQKPGQAPRGLIGGTNKRAPWTPARFSGSLLGDKAALTLSGAQPEDEAEYFCALWYSNLWVFGGGTKLTVLGQPKAAPSVTLFPPSSEELQANKATLVCLISDFYPGAVTVAWKADSSPVKAGVETTTPSKQSNNKYAASSYLSLTPEQWKSHRSYSCQVTHEGSTVEKTVAPTECS
On to B1, for which the “(%) higher molecular weight” value in data set [1] came out at 7.7%. The “Melting temperature (Tm) of CH2 domain” value in data set [2] is 70 °C.

For the origin of these results see patent US20240025993A1, “CD19 BINDING MOLECULES AND USES THEREOF” (NOVARTIS AG, priority 2020, published 2024).
